The supplement of paper PMC3334620
Over roughly 33,000 sequences, “E-score (-0.5 to 0.5)” has its median near -0.016; the highest 2% begin near 0.31. The list shows a part of the results.

What follows are sequences tested against Cst6 (UniProt P40535) (assay: PBM E-score (8-mer binding enrichment) (E-score (-0.5 to 0.5)); higher = stronger / more preferred TF binding; most listed sequences are background and not binding sites). Details: protein concentration: 200 nM; construct: GST-DNA-binding domain.
How it was run: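 E-scores (a modified Wilcoxon-Mann-Whitney statistic) were assigned by the Universal PBM Analysis Suite to every ungapped eight-base word pooled with its reverse complement. The input came from universal all-10-mer Agilent arrays made double-stranded by primer extension and probed with GST-tagged yeast transcription factors at about 100-200 nM. Fluorescent anti-GST detected bound protein, and masliner normalised the scans.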

| Sequence | PBM E-score |
| --- | --- |
| CCTCGACG | -0.106 |
| CAGGGGTA | -0.313 |
| CGCTAGCG | -0.28 |
| AACCTTGT | -0.196 |
| TCTTCCCA | -0.188 |
| CAACCCGA | 0.0847 |
| AAACTACC | 0.00827 |
| ATTAATTA | 0.297 |
| AGGAGTGA | 0.118 |
| ACGTGGCC | -0.138 |
| CGTTTCGA | 0.0477 |
| ACGCGAAG | -0.0658 |
| AAACACGG | -0.0188 |
| AGAGGGGG | -0.43 |
| ACATGGCA | 0.0593 |
| ACATTGTG | 0.0401 |
| AGCTCGAA | -0.045 |
| CAATGGCG | -0.18 |
| TCGAGGCA | 0.156 |
| GTGCCGCA | 0.362 |
| TCATTCCA | 0.0734 |
| TCGAATCA | 0.0583 |
| GCCCACAA | -0.222 |
| ACGGCACC | 0.391 |
| ACTCCTTA | -0.112 |

| Sequence | PBM E-score |
| --- | --- |
| CATTCCTA | -0.0338 |
| AAGTATAA | 0.158 |
| CAGCCGGA | -0.0573 |
| AATACTGC | -0.0664 |
| CGTAGGGC | -0.199 |
| AATTGACA | 0.0844 |
| CAGCGGTA | 0.0522 |
| CATAGAAG | 0.0768 |
| ACGCCGCA | 0.336 |
| TCCCTCCA | -0.237 |
| AGCCTAGA | -0.13 |
| CAGTTACC | -0.0833 |
| GATAAATC | 0.0692 |
| ACGGGACT | -0.177 |
| ACCTAAGT | -0.0476 |
| ATTGTCAA | 0.123 |
| AACTAACC | 0.185 |
| CGAGAGCC | -0.252 |
| GAAATGGC | 0.0365 |
| AAAAGCGC | 0.0701 |
| CATTTTTC | 0.228 |
| TCACCACA | 0.145 |
| ATTACAAA | 0.213 |
| CAGGTATC | -0.144 |
| AACAATAC | 0.156 |

| Sequence | PBM E-score |
| --- | --- |
| GTGCGTAA | 0.192 |
| ACAAGAGC | -0.0171 |
| CAGACAGC | -0.185 |
| ATGTATTG | 0.208 |
| AATTCCTG | -0.0708 |
| CTTCGCAC | 0.0694 |
| TGGAACAA | 0.153 |
| AATGCGCA | -0.00595 |
| AGTTACGG | 0.0767 |
| GTCTCATA | -0.139 |
| CGCTGCAC | -0.0108 |
| GCCGTAAC | 0.198 |
| CTGTTAAA | 0.157 |
| AAATCGAG | -0.0139 |
| ACCAGGGG | -0.24 |
| ACTAATAC | 0.188 |
| CGGCCTTC | 0.00035 |
| CCATGTAC | -0.0837 |
| GGTTTGTA | -0.0712 |
| AAATCCGC | -0.0853 |
| CGGCACAA | 0.228 |
| ACAATTCG | 0.146 |
| AGATGTTC | -0.155 |
| GACCCACA | -0.00436 |
| ATACGAAA | 0.192 |

| Sequence | PBM E-score |
| --- | --- |
| CCGCCCGA | -0.176 |
| AGACCCTA | -0.153 |
| CAAGCCAC | -0.296 |
| AAGTCTTC | -0.119 |
| AAATACGC | 0.195 |
| ATTCAGCG | 0.0604 |
| CACCACCC | -0.0343 |
| CAACCGCA | -0.129 |
| ATGATCTC | 0.203 |
| CGTACTTA | 0.0903 |
| AACTTGGG | -0.112 |
| GACCGCCA | -0.0766 |
| CGTGAGTA | 0.0656 |
| AAGCTCGC | -0.162 |
| AAATAGTC | -0.234 |
| GAGAAGGC | -0.166 |
| CGAGGTGA | 0.211 |
| CACTCCCC | -0.195 |
| CCATGGGG | -0.191 |
| GGAATCTA | 0.0645 |
| CACTCTGG | -0.0859 |
| AGCCAATA | -0.113 |
| CGGGAGCA | -0.195 |
| CACTTTGC | 0.0845 |
| GGTGCAGA | -0.257 |

| Sequence | PBM E-score |
| --- | --- |
| ATGAACCC | -0.022 |
| TATGTCCA | -0.056 |
| GCAGCAAC | -0.032 |
| AAGCTAAC | 0.0262 |
| ATATTGAG | 0.143 |
| CTCCCTGA | -0.143 |
| CACCAAAG | 0.132 |
| CTACCTGA | -0.0536 |
| CCGTCTTC | -0.116 |
| AATTGCCT | 0.0958 |
| AGACCCAT | -0.0534 |
| ACGGAGAA | -0.0413 |
| ATACATCC | 0.0476 |
| CAATTTCC | -0.049 |
| GATGCAGC | 0.0119 |
| CAACTAGG | 0.0574 |
| AGCGCTGG | -0.136 |
| AGGCCGAT | -0.106 |
| AACTTCCA | -0.178 |
| AATCCATT | 0.186 |
| GAGCTGGA | -0.241 |
| GCCAACAC | 0.0682 |
| GTGCAGTA | -0.148 |
| CAATCTTC | 0.0992 |
| ATCTCGTG | -0.0972 |

| Sequence | PBM E-score |
| --- | --- |
| ATTCCCCC | -0.245 |
| TGGTTTAA | 0.173 |
| ATACGCAG | -0.101 |
| CACGCCCC | -0.204 |
| ATCACTCC | 0.133 |
| GATAGCTA | -0.199 |
| CGACTGAC | -0.00776 |
| GTACCAGA | -0.199 |
| CAAATATC | 0.2 |
| CCCGTACA | -0.222 |
| ACGCTTCT | -0.0858 |
| ATGGCTTG | -0.155 |
| ATTTACTG | 0.11 |
| AACCTGTG | -0.142 |
| AATTGGGA | 0.0995 |
| TAACGCTA | 0.0178 |
| AACAATGT | 0.056 |
| CGATTCGA | 0.0945 |
| CCGCGCAA | -0.0106 |
| AATGCCCC | -0.169 |
| ACACTAGT | -0.117 |
| GTTTGCAA | 0.168 |
| AGGTTGTC | -0.233 |
| CGACGCTC | -0.00451 |
| ATATTTTC | 0.193 |

| Sequence | PBM E-score |
| --- | --- |
| ACGCTGTC | -0.194 |
| AAGGCCTC | -0.0458 |
| ACTCAAGA | -0.11 |
| CTGCACAC | -0.13 |
| CTGGGCCC | -0.307 |
| CTACGAGC | -0.201 |
| CCTAGTCG | -0.213 |
| AGATAGCG | -0.0262 |
| AACGACCG | -0.26 |
| AGTAAATA | 0.12 |
| ATCTCTGC | 0.0476 |
| GTTCATTA | 0.18 |
| GTTTAGAA | 0.0297 |
| CAGTCTTA | 0.0306 |
| GGCCCGCC | -0.281 |
| GAAAATAA | 0.204 |
| CATTGCTC | -0.0352 |
| GAGACCCA | -0.0946 |
| ACCAGGTG | -0.0713 |
| AACTAAGC | 0.0593 |
| GAAAACTC | -0.0218 |
| ATTCGTTC | 0.165 |
